# Assay results from the supplement of paper PMC3334620.
# Over roughly 33,000 sequences, “E-score (-0.5 to 0.5)” has its median near -0.011; the highest 2% begin near 0.28. The list shows a part of the results.
# Molecular target: T1, Gcr1 (UniProt P07261)
# T1 sequence: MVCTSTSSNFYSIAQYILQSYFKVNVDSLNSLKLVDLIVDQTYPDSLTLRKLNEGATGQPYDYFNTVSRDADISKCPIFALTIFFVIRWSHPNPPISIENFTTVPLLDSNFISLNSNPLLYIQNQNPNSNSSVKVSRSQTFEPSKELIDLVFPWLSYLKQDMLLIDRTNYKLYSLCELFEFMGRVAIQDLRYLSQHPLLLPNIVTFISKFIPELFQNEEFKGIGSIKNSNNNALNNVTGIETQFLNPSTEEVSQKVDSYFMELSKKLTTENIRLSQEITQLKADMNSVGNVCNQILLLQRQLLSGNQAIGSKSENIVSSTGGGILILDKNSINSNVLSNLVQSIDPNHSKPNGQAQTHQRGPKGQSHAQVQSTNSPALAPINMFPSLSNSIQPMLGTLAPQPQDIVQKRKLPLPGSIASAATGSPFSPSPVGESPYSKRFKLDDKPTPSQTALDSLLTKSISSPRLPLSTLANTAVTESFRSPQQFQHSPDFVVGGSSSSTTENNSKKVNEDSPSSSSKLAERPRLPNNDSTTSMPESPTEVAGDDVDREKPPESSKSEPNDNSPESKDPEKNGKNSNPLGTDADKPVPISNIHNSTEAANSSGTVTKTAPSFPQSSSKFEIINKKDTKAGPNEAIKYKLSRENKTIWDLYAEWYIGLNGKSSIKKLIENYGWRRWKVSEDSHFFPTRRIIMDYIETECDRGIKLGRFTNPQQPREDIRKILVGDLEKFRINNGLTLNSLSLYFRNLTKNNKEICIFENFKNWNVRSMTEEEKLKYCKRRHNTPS
# Assay: PBM E-score (8-mer binding enrichment) (E-score (-0.5 to 0.5)); higher = stronger / more preferred TF binding; most listed sequences are background and not binding sites
# Conditions: protein concentration: 100 nM; construct: GST-full length
# Summary of the method: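 Using PURExpress in vitro transcription/translation, GST-tagged yeast transcription factors were made in full-length or DNA-binding-domain form. These were applied at about 100-200 nM to double-stranded universal all-10-mer Agilent arrays, and bound protein was detected with fluorescent anti-GST. Scans were normalised with masliner before the Universal PBM Analysis Suite assigned E-scores to ungapped eight-base words pooled with their reverse complements.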
row,Sequence,PBM E-score
1,AAGTATAG,0.0716
2,CCTAGTTC,0.172
3,ACTCAGGG,-0.0431
4,CGAGCGCG,-0.157
5,CACTAGGG,0.0189
6,GGACACAC,0.00943
7,AGTACAAC,-0.111
8,CTGCTCCA,-0.124
9,TCGTCGAA,-0.183
10,AGCTTTTG,-0.0171
11,GTTCTAGA,0.217
12,CACACCAA,-0.0636
13,GCCACCAA,0.0222
14,ATGTCATA,0.106
15,ATTGCGAG,-0.214
16,AATCGACA,0.13
17,TCTGGGAA,0.00186
18,AGCTACCT,0.183
19,ACTCGTCG,-0.288
20,TATTTTCA,0.168
21,GAGTCTTA,-0.226
22,GGTCTCCA,0.156
23,AATTACGA,0.108
24,CCTTGACG,-0.00826
25,AATGAAGA,-0.0467

row,Sequence,PBM E-score
1,GGCCCGCA,-0.0485
2,CCTTCCAG,0.0686
3,AGATGCCA,0.385
4,ATGCGAAA,0.107
5,CTTATCTA,0.159
6,ACACAGGT,0.0552
7,ATAAGTAG,0.126
8,AGTGGGAC,-0.0289
9,AGGTGGCC,-0.0324
10,CACAAGGG,-0.0799
11,AGCCGCGC,0.0175
12,AGAGCGTG,-0.106
13,CCATGACC,-0.165
14,CATGTATC,-0.022
15,TGCTTAAA,0.267
16,GCCCTTCA,-0.0164
17,AGGTCGGA,-0.149
18,AGAACATG,-0.117
19,GACGTCCC,-0.051
20,CCAACGGG,-0.027
21,CGGTATCA,-0.0496
22,GATTTAGC,0.131
23,TCCAGTCA,0.138
24,AGGATGTG,-0.00019
25,ACGGGCCG,-0.24

row,Sequence,PBM E-score
1,CGGCTGCC,0.376
2,AGCGTAAT,0.0149
3,TAAACCAA,-0.0299
4,ATTTACTC,-0.0422
5,CTGCGTTA,-0.00686
6,AACCAAAT,0.192
7,GATTGCCA,-0.0717
8,GGAGACCC,-0.00231
9,CTTCGGCC,-0.325
10,ATAGACAT,-0.0591
11,GCATGACA,-0.0488
12,CGAACGGC,-0.327
13,ATTGAATA,0.083
14,ATTAGACG,0.295
15,GAGCAACC,0.183
16,GGCTGTGA,-0.199
17,AAAGTTGT,-0.00604
18,AACGAGGC,-0.289
19,AGTAGGGG,0.162
20,AGTCTTCA,-0.173
21,ATCCACAG,0.095
22,ATTATGAG,-0.109
23,ATGCTGGG,-0.0684
24,GAGATGCA,-0.0326
25,AGGCGAAT,0.164

row,Sequence,PBM E-score
1,GGTACGAA,0.0552
2,GCTCACAC,-0.138
3,ATCGTGTC,-0.0762
4,CAGAGAAA,-0.0752
5,AAGTCGGC,0.101
6,AATTTACG,0.0625
7,ACCAGTCG,-0.0765
8,AAACAATC,-0.118
9,ATTAATGA,0.206
10,ACGTGAGG,-0.188
11,ATCAGAGG,-0.0655
12,CGCTTGAA,-0.00196
13,CAATCCCA,-0.238
14,ATACATGG,-0.0143
15,ACAGGCGT,0.0735
16,ACTTATAT,0.0752
17,ATCTTTAA,0.126
18,AAACTTTC,-0.112
19,AAGGAGCC,0.236
20,AGGGGCGC,0.0975
21,CAAAGCAG,0.151
22,AAAGCCCC,-0.121
23,CAAAAGAA,0.00461
24,CTCTGTGC,-0.0991
25,CCATGCTC,-0.163

row,Sequence,PBM E-score
1,CTTGTCTC,0.0266
2,CAAGATTA,0.115
3,CGGTGTTC,0.138
4,CTTTGATA,-0.126
5,AGGAGGAG,-0.174
6,ATGTCAGG,-0.0106
7,CCCGAGGA,0.127
8,ATTGTTTC,0.0668
9,CCACTTCG,0.0958
10,CAACTGTA,0.0815
11,GCTTTCGA,-0.172
12,AGTACACA,-0.0105
13,TCTCGACA,0.00826
14,CACCTAAC,-0.0762
15,CTGGTTTA,-0.157
16,AGATTGTG,-0.183
17,ATTTGCTC,0.011
18,CAGCTACC,0.106
19,ATTGCTCA,-0.0603
20,CAATCCGG,0.138
21,AACTGCAC,-0.144
22,AACAGCTG,-0.139
23,GCTGAAGA,-0.0946
24,AGAGAAAG,-0.17
25,CGACGCAG,-0.168

row,Sequence,PBM E-score
1,TCCCGTAA,0.197
2,CAGCCCTG,-0.221
3,ACTTCCTC,0.243
4,CTGGATTC,0.361
5,CACTAAAG,0.00198
6,CTTTGATC,-0.117
7,TAAAGGTA,-0.0155
8,ATACCTCA,-0.0734
9,ATTACAAC,0.00639
10,CAGCGGAC,0.0152
11,AAGACAAA,0.0314
12,ATTTTCAA,0.191
13,ACATAGAA,0.159
14,CCAGATCG,0.117
15,CCCACTTA,0.0227
16,CGCAACAG,-0.0598
17,CGTTCCGC,-0.0069
18,GCTCCCAC,0.262
19,AGCTGCCA,0.385
20,CAAACTAC,0.0803
21,AAAACTGC,-0.038
22,CTACAGCC,-0.24
23,CTAGGAAC,0.149
24,ACAGGGCC,0.144
25,ACGGTCGA,-0.354

row,Sequence,PBM E-score
1,CGCATGCG,-0.0342
2,AACCGTTG,-0.191
3,CGTGGACA,-0.0344
4,GCACGGGC,-0.215
5,ATCTTTTA,0.11
6,CTGAATGA,0.0649
7,AAAGCCGT,-0.166
8,CTGCGCTC,-0.21
9,AGTGCCCG,-0.042
10,AACCCTAA,-0.0435
11,AGCCCCTG,-0.173
12,ATAGAAGG,0.0701
13,GCAAGTGC,-0.0557
14,GACGTCAA,-0.0162
15,ACGCGTCT,0.155
16,CACGGCAG,0.0173
17,AACGGCGC,-0.153
18,GTCTTTTA,0.101
19,CGTCCGAA,0.148
20,AGATTTTC,-0.0558
21,CGTCAGAC,-0.108
22,ATAGGTCC,-0.0274
